PubChem BioAssay AID686970 (National Center for Advancing Translational Sciences (NCATS), 2013)
Values joined by “and” are separate entries in the source; they are usually repeats but may differ in a detail not shown here. Equal entries are not always repeated. In all, about 360,000 compounds went through this assay and about 6,000 (1.7%) were called active. The shares of active, inactive and inconclusive entries below differ from those in the screen. The call rests on the fitted dose curve; in most records, active means well fitted cell-killing curve with a large enough effect; inconclusive means small, poorly fitted or top-dose-only effect, or effect the other way; inactive means flat fitted curve, though single readings scatter. A potency beside an inconclusive call is a rough fit, not a confirmed value.

Experiment: qHTS for induction of synthetic lethality in tumor cells producing 2HG: qHTS for the HT-1080-NT fibrosarcoma cell line;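 further: NT is the 2HG producing partner of a matched IDH1 knockdown line; nearly all actives have a fitted effect of over 55% in size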
Details: HT-1080-NT fibrosarcoma viability, CellTiter-Glo ATP luminescence, 48 h; series mostly up to 46.1 µM
How it was run: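 A 48-hour cytotoxicity screen used HT-1080-NT cells plated 2 hours before compound delivery. ATP-based CellTiter-Glo luminescence measured viability, normalized to DMSO and no-cell controls.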
Potency means the concentration at half of the fitted maximal effect; tags describe the fitted curve by direction and shape.

Row | SMILES | Potency
1 | COc1ccc(O)c(/C=N/NC(=O)CCC(=O)Nc2cccc(C)c2)c1 | inconclusive: 9.2 µM [cytotoxic, partial curve]
2 | O=C(NCc1cccnc1)C1Cc2c(-c3ccc(Cl)cc3)ccnc2O1 (stereo unspecified) | active: 5.8 µM
3 | CC(C)C[C@H]1CN(CCCC[C@@H]2CNC(=O)C(=O)N2Cc2ccccc2)C(=O)C(=O)N1CCC1CCCCC1 | inconclusive: 29.1 µM [cytotoxic, single point]
4 | OCC#Cc1ncc(C(F)(F)F)cc1Cl | active: 20.6 µM
5 | O=C(N/N=C/c1ccccn1)c1cccc(NC(=O)c2ccc(Cl)cc2)c1 | inconclusive: 20.6 µM [cytotoxic, single point]
6 | COc1cccc(C(N)c2nc(-c3csc4ccccc34)cs2)c1 (stereo unspecified) | inconclusive: 29.1 µM [cytotoxic, single point]
7 | COc1ccc(Cl)cc1NC(=O)CSc1nnc(COc2ccccc2)n1C | inconclusive: 35.5 µM [cytotoxic, single point]
8 | CCCCNc1c(-c2ccc(SC3CCCCC3)c(OC)c2)nc2ccc(C)cn12 | inconclusive: 20.6 µM [cytotoxic, partial curve] and inconclusive: 20.6 µM [cytotoxic, single point]
9 | O=C(Cn1cnc2ccc(Br)cc2c1=O)c1cccs1 | inconclusive: 18.4 µM [cytotoxic, single point]
10 | CC(C)NC(=O)CSc1nc2ccccc2n1-c1ccccc1 | inconclusive: 35.5 µM [cytotoxic, single point]
11 | COC(=O)[C@]12CCCCC=C1N(Cc1ccc(Cl)cc1Cl)C(=O)[C@H](CC(=O)N1CCN(C(=O)C3CC3)CC1)C2 | inconclusive: 29.1 µM [cytotoxic, single point]
12 | CCc1nc2c(sc3nc4c(cc32)COC(C)(C)C4)c(=O)n1Cc1ccco1 | inconclusive: 29.1 µM [cytotoxic, single point]
13 | CNc1ccc(-c2ccccc2CO)cn1 | inconclusive: 29.1 µM [cytotoxic, single point]
14 | CCOC(=O)[C@]12CCCC=C1N(Cc1ccc3c(c1)OCO3)C(=O)[C@H](CC(=O)NCCCCc1ccccc1)C2 | inconclusive: 11.6 µM [cytotoxic, partial curve]
15 | CC[n+]1c(/C=C2\C=C(C)CC(C)(C)C2)sc2ccccc21 | inconclusive: 22.4 µM [cytotoxic, single point]
16 | CNC(=O)/C(C#N)=C/c1c(N2CCN(c3ccc(OC)cc3)CC2)nc2c(C)cccn2c1=O | inactive
17 | O=C(Nc1ccc2c(c1)OCO2)C(=O)c1c[nH]c2ccccc12 | inconclusive: 2.59 µM [cytotoxic, full curve, poor fit]
18 | COC(=O)[C@]12CCCCC=C1N(CCC1=CCCCC1)C(=O)[C@H](CC(=O)NCC13CC4CC(CC(C4)C1)C3)C2 | inconclusive: 29.1 µM [cytotoxic, single point]
19 | Nc1nc(NCc2ccco2)nc(N2CCCCCC2)c1[N+](=O)[O-] | inconclusive: 29.1 µM [cytotoxic, single point]
20 | Cc1ccc(C(=O)N/C(=C\c2ccc([N+](=O)[O-])cc2)C(=O)NCCc2ccccc2)cc1 | inconclusive: 6.31 µM [cytotoxic, single point]
21 | Cn1nnnc1SCCNCc1ccccc1OCc1ccc(Cl)cc1 | inconclusive: 20.6 µM [cytotoxic, single point]

Row | SMILES | Potency
22 | COc1cc(NC(=O)c2ccc(-c3cn[nH]c3)c3ccoc23)cc(OC)c1OC | inactive
23 | CCCc1c(-c2ccccc2F)ncn1Cc1ccccc1OC | inconclusive: 29.1 µM [cytotoxic, single point]
24 | O=C(Cc1ccsc1)NNC(=O)c1ccccc1O | inconclusive: 29.1 µM [cytotoxic, single point]
25 | CCOC(=O)/C(=N/Nc1ccccc1)c1csc(Nc2ccccc2)n1 | inconclusive: 28.2 µM [cytotoxic, single point]
26 | CCC(C)Sc1cccc(-c2nc3ccc(Cl)cn3c2NCc2ccccc2)c1 (stereo unspecified) | inconclusive: 29.1 µM [cytotoxic, single point]
27 | COc1cccc(-c2sc3ccc(OC)cc3c2-c2ccc(OCCN3CCCC3)cc2)c1 | inconclusive: 29.1 µM [cytotoxic, single point]
28 | Cc1cc2c(cc1S(=O)(=O)CCC(=O)N1CC(C)CC(C)C1)OCC(=O)N2 (stereo unspecified) | inactive
29 | CCOc1ccc2[nH]c3c(N4CCN(c5ccccn5)CC4)ncnc3c2c1 | inconclusive: 35.5 µM [cytotoxic, single point]
30 | COc1ccc(NC(=O)CSc2nnc(C(C)C)n2N)cc1 | inconclusive: 0.0018 µM [rising, full curve, poor fit]
31 | O=c1/c(=C\c2cccc(O)c2)sc2nc(-c3ccccc3)c(-c3ccccc3)n12 | inconclusive: 20.6 µM [rising, partial curve]
32 | NCCCNc1ccc([N+](=O)[O-])cc1C(F)(F)F | inactive
33 | CCN(CC(=O)NCc1ccc(Cl)cc1)C(=O)CSCC(=O)Nc1ccc(C)cc1 | inactive
34 | COc1ccc(-c2csc(NC(CO)c3nc4ccccc4n3Cc3ccc(C)cc3)n2)cc1 (stereo unspecified) | inconclusive: 29.1 µM [cytotoxic, single point]
35 | COc1ccc(Oc2ccc3c(C(F)(F)F)cc(C(F)(F)F)nc3n2)cc1 | inactive
36 | COc1ccc(OC)c(Nc2cc(C)nc3ccccc23)c1 | inconclusive: 20 µM [cytotoxic, single point]
37 | COc1ccc(OC)c2c1sc(=NC(=O)C1COc3ccccc3O1)n2C (stereo unspecified) | inconclusive: 23.1 µM [rising, single point]
38 | CCN(CC)CCNC(=O)c1ccc(Sc2ccc(C)cc2)c(NC(C)=O)c1 | inactive
39 | CC1Nc2ccccc2C(=O)N1NC(=O)c1ccc(Br)cc1 (stereo unspecified) | inactive
40 | CCN(Cc1ccncc1)Cc1nc(Cc2ccccc2Cl)no1 | inconclusive: 6.51 µM [cytotoxic, partial curve]
41 | COc1ccc(S(=O)(=O)Nc2ccc(-c3ccc4nncn4n3)cc2)c(OC)c1 | inconclusive: 29.1 µM [cytotoxic, single point]
